Measured values as given in patent publication US20090088461A1, “Methods of Treating or Preventing Cardiac Disease Associated With a High Fat Diet” (Synvista Therapeutics, Inc., priority 2007, published 2009).
Entries with a single value are a further part of the results.

Tested on: superoxide production in left ventricular homogenates (gp91^phox, RAC-1, heme oxygenase)
Test: Assessment of superoxide production in HF-fed mice
Format: in vivo
Conditions: HF diet, real time RT-PCR
From the text: Adult (8-week-old) male […] mice (Precinct Animal Centre, Melbourne, Australia) and RAGE knockout (KO) mice^17 ([…] al., J Clin Invest. 113:1641-50, 2004) were housed in a temperature-controlled room on a 12-h light-dark cycle. Mice were placed on either a standard diet (AIN-93G; Specialty feeds, Perth AUS; n=10/group) or a high fat (HF) diet formulated to mimic a “Western fast food diet”, (SF05-031, Specialty Feeds; n=10). Both diets contained the same vitamin and calorie content. […] Animals receiving a HF diet were further randomized to receive alagebrium chloride at a dose of 1 mg/kg/day delivered by oral gavage. All groups were followed for 16 weeks. The production and accumulation of superoxide and other ROS is a key mediator of […] injury and cellular dysfunction associated with high fat feeding^5 (Boudina and Abel, Circulation 115:3213-23, 2007). […] Fresh homogenates were then divided to determine superoxide production in the presence of 125 μM NADH and 30 μM of the NADPH oxidase inhibitor, diphenylene iodinium (designated NADH-dependent superoxide production), and superoxide production in the presence of 125 μM NADPH and 30 μM of the respiratory chain inhibitor, rotenone (designated NADPH-dependent superoxide production). This latter activity was not inhibited by L-N^G-Nitroarginine or allopurinol. Each of the samples was processed in triplicate. Following incubation for 60 min at 37° C., before the rate of superoxide anion formation was determined by the addition of 3.8 μM lucigenin (bis-N-methylacridinium nitrate). […] The expression of the NADPH subunits, NOX-2 (gp91^phox), p47^phox, NOX-4 and RAC-1 in left ventricular homogenates, along with the expression of heme oxygenase (HO) and glutathione peroxidase (GPX), key defence mechanism against oxidative stress, were further assessed by real-time quantitative RT-PCR, as detailed above.

Question: With Cc1sc[n+](CC(=O)c2ccccc2)c1C.[Cl-] [alagebrium chloride, 3-(2-phenyl-2-oxoethyl)-4,5-dimethylthiazolium chloride] as the compound, how does the “Gene expression relative to 18S (AU/18s)” value (RAGE KO mice, RAC-1 expression) read?
Answer: 0.7 ± 0.1 AU/18s

Question: And the “Gene expression relative to 18S (AU/18s)” value (RAGE KO mice, gp91phox expression)?
Answer: 0.9 ± 0.1 AU/18s

Question: And the “Gene expression relative to 18S (AU/18s)” value (RAGE KO mice, heme oxygenase (HO-1) expression)?
Answer: not influenced

Question: What about the “Gene expression relative to 18S (AU/18s)” value (Wild-type mice, RAC-1 expression) of the same compound?
Answer: 1.0 ± 0.2 AU/18s

Question: What about the “Gene expression relative to 18S (AU/18s)” value (Wild-type mice, heme oxygenase (HO-1) expression) of the same compound?
Answer: not influenced

Question: And the “Gene expression relative to 18S (AU/18s)” value (Wild-type mice, listed as AL, gp91phox gene expression)?
Answer: 0.8 ± 0.2 AU/18s

Question: And the “Gene expression relative to 18S (AU/18s)” value (Wild-type mice, listed as AL, heme oxygenase gene expression)?
Answer: 0.1 ± 0.1 AU/18s
